Reference: PubChem BioAssay (Tox21)
“And” between values parts separate entries of the source, which are not always exact repeats. Identical values can stand only once. This list was built around the results that the source calls inconclusive (neither active nor inactive); the mix of calls is not that of the screen. For some assays here: Where the call is inconclusive, the potency comes from a doubtful curve fit. The source made the active and inactive calls. Unless noted, calls follow the shape of the dose curve; as a rule, active = well fitted curve in the direction sought with a large enough effect in the repeat runs; inconclusive = weak or mixed curves; inactive = no such curve, though single readings can be large; an effect the other way counts as inactive or inconclusive.

Columns and labels:
[1] = qHTS assay to identify small molecule agonists of the RXR signaling pathway - cell viability counter screen (AID 1159529); also: nearly all actives have a fitted effect of over 50% in size
How it was run: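 Steps: seed RXR-alpha-UAS-bla HEK 293T cells in assay medium containing 2% charcoal-stripped FBS; incubate 5 hr; add compounds in DMSO; incubate 16 hr at 37 C; after the bla read, add CellTiter-Glo and read luminescence at 30 min.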

[2] = qHTS assay to identify small molecule antagonists of the estrogen related receptor (ERR) signaling pathway from Tox21 library - cell viability counter screen (AID 1224834); also: nearly all actives have a fitted effect of over 30% in size
How it was run: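 After 17.5 h of compound exposure at 37 C, ERR cells are incubated with CellTiter-Fluor for 30 min and fluorescence intensity serves as the viability measure.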

[3] = qHTS RealTime-Glo MT Cell Viability Assay in HEK293 cells - 16 hour (AID 1224872); also: nearly all actives have a fitted effect of over 50% in size
How it was run: (§1)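 Homogeneous bioluminescent viability format in HEK293 cells (600 cells/well). Following 5 h at 37 C/5% CO2, 23 nL compound was pintooled; the signal was measured repeatedly during 40 h incubation.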

[4] = target: Estrogen receptor beta (Homo sapiens) (UniProt Q92731); assay: qHTS assay to identify small molecule agonists of the estrogen receptor beta (ER-beta) signaling pathway (AID 1259377; active = well fitted activation curve with a large enough effect in the signal ratio in the repeat runs, not every such curve was filed as active; inconclusive = weak or mixed curves, or effect the other way; the % refers to the signal ratio); conditions: ER-beta-UAS-bla HEK293T, beta-lactamase FRET ratio, 16 h; activation: at 92.4 µM (top of the series) unless noted
How it was run: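 Agonist mode cell assay in GripTite HEK293T cells expressing an ER-beta fusion that drives beta-lactamase from an Upstream Activator Sequence; 16 hr compound exposure at 37C, then 2 h LiveBLAzer B/G FRET substrate at room temperature, fluorescence read-out.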

[5] = qHTS RealTime-Glo MT Cell Viability Assay in HEK293 cells - 32 hour (AID 1224868); also: nearly all actives have a fitted effect of over 50% in size
How it was run: as §1

[6] = qHTS RealTime-Glo MT Cell Viability Assay in HEK293 cells - 24 hour (AID 1224886); also: nearly all actives have a fitted effect of over 50% in size
How it was run: as §1

[7] = target: Thyrotropin receptor (Homo sapiens) (UniProt P16473); assay: qHTS assay to identify small molecule agonists of the thyroid stimulating hormone receptor (TSHR) signaling pathway (AID 1224843; calls by dose curve; also: nearly all actives have a fitted effect of over 45% in size; as to activation: % is scaled to controls: 0 for no effect and ±100 for the full control effect); conditions: TSHR-HEK293 cells, cAMP HTRF, agonist mode, 30 min; activation: at 92.4 µM (top of the series) unless noted
How it was run: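 Screening of the Tox21 10K collection used HEK293 cells engineered with TSHR at 800 cells per well. After a 30-min room-temperature compound exposure, HTRF cAMP reagents were added and fluorescence recorded 1 h later.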

[8] = qHTS assay to identify small molecule antagonists of the estrogen receptor alpha (ER-alpha) signaling pathway - cell viability counter screen (AID 743074; calls by dose curve;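 also: HEK293 cells carrying ER-alpha-UAS-bla reporter stimulated with 17beta-estradiol; nearly all actives have a fitted effect of over 45% in size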)
[9] = target: Estrogen receptor (Homo sapiens) (UniProt P03372); assay: qHTS assay to identify small molecule agonists of the estrogen receptor alpha (ER-alpha) signaling pathway using the BG1 cell line (AID 743079); conditions: BG1Luc4E2 cells, ERE-luciferase agonist, 22 h; activation: at 70.3 µM (top of the series) unless noted; also: nearly all actives have a fitted effect of over 20% in size; as to activation: % is scaled to controls: 0 for no effect and ±100 for the full control effect
[10] = qHTS assay to identify small molecule antagonists of the vitamin D receptor (VDR) signaling pathway - cell viability counter screen (AID 743225); conditions: VDR-bla HEK293T viability, CellTiter-Glo luminescence, 16 h; viability change, negative = cytotoxic: at 61 µM (top of the series) unless noted; also: nearly all actives have a fitted effect of over 50% in size; as to viability change, negative = cytotoxic: % is scaled to controls: 0 for no effect and ±100 for the full control effect
How it was run: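 HEK293T VDR-bla; cpd + 1a,25-(OH)2D3 3 nM final, 16 h 37C/5% CO2; B/G FRET substrate 2 h RT; then CellTiter-Glo 30 min RT, luminescence.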

[11] = target: Nuclear receptor subfamily 1 group I member 2 (Homo sapiens) (UniProt O75469); assay: Human pregnane X receptor (PXR) small molecule agonists, qHTS assay (AID 1346982); also: nearly all actives have a fitted effect of over 35% in size; as to activation: % is scaled to controls: 0 for no effect and ±100 for the full control effect
How it was run: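 Compound-induced hPXR transactivation of a CYP3A4 luciferase reporter was scored in HepG2 PXR-Luc cells over 24 hr at 37 C, 5% CO2, by luminescence.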

[12] = qHTS assay to identify small molecule antagonists of the peroxisome proliferator-activated receptor delta (PPARd) signaling pathway - cell viability counter screen (AID 743213); conditions: PPARd-bla HEK293H viability, CellTiter-Glo luminescence, 17 h; viability change, negative = cytotoxic: at 62 µM (top of the series) unless noted; also: nearly all actives have a fitted effect of over 50% in size
How it was run: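 HEK293H cells with the PPARd UAS-bla reporter, co-treated 17 h at 37 C with compounds and L165041 (300 nM final), were lysed with CellTiter-Glo. Luminescence indicated viable cell content.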

[13] = qHTS assay to identify small molecule agonists of the vitamin D receptor (VDR) signaling pathway - cell viability counter screen (AID 743224); also: nearly all actives have a fitted effect of over 50% in size
How it was run: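 Plated VDR-bla cells (4 h, 37C) received compound, incubated 16 h, then LiveBLAzer substrate 2 h RT; CellTiter-Glo added afterwards, luminescence read at 30 min.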

[14] = qHTS assay to identify small molecule agonists of H2AX - cell viability counter screen (AID 1224847; calls by dose curve; also: nearly all actives have a fitted effect of over 30% in size)
How it was run: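 Cytotoxicity counter screen in wild-type CHO-K1 cells: a 3 hr compound treatment at 37C across 15 concentrations, followed by CellTiter-Glo luminescence to gauge viable cells.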

[15] = qHTS assay for identifying genotoxic compounds that show differential cytotoxicity against isogenic chicken DT40 cell lines with known DNA damage response pathways - wild type cell line (AID 743012); conditions: DT40 wild type chicken cells viability, CellTiter-Glo, 40 h; activity change, negative = cytotoxicity: at 68.4 µM (top of the series) unless noted; also: nearly all actives have a fitted effect of over 60% in size
How it was run: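 First, wild type DT40 cells were plated at 300 per well and equilibrated about 0.5 h at 37 C/5% CO2. Next, compounds in DMSO were added and exposure lasted 40 h. Finally, CellTiter-Glo was added for 30 min at room temperature and luminescence recorded.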

[16] = qHTS assay for small molecule agonists of the p53 signaling pathway (AID 651631; calls by dose curve; also: nearly all actives have a fitted effect of over 15% in size); conditions: HCT-116 p53RE-bla reporter, beta-lactamase FRET ratio, 16 h; activation: at 73.3 µM (top of the series) unless noted
How it was run: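 Agonist mode screen using a stably integrated beta-lactamase gene under p53 response elements in HCT-116 cells. Compound exposure lasts 16 h at 37 °C; fluorescence intensity is measured following 2 h FRET substrate loading.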

[17] = target: Peroxisome proliferator-activated receptor delta (Homo sapiens) (UniProt Q03181); assay: qHTS assay to identify small molecule antagonists of the peroxisome proliferator-activated receptor delta (PPARd) signaling pathway (AID 743215; active = well fitted inhibition curve with a large enough effect in the signal ratio in the repeat runs, not every such curve was filed as active; inconclusive = weak or mixed curves, or effect the other way; inactive = no such curve, though single readings can be large or run the other way; the % refers to the signal ratio;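 also: cells stimulated with agonist L165041 at 300 nM final during compound exposure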); conditions: HEK293H PPARd-UAS-bla, beta-lactamase FRET ratio, antagonist, 17 h; ratio activity, negative = inhibition: at 62 µM (top of the series) unless noted
How it was run: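 HEK293H UAS-bla, PPARd; agonist L165041 300 nM final with cpd in DMSO; 37 C 17 h; FRET substrate, RT 2 h; fluorescence intensity.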

[18] = qHTS assay to identify small molecule agonists of the retinoic acid receptor (RAR) signaling pathway (AID 1159553); conditions: C3RL4 RARE luciferase reporter, agonist, 6 h; activation: at 73.3 µM (top of the series) unless noted
How it was run: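 Reporter readout comes from luciferase under RARE control in C3RL4 cells; compound exposure lasts 6 hr at 37 C in 5% CO2, and luminescence is recorded following a 30 min room-temperature incubation with reagent.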

[19] = Caspase-3/7 induction in CHO-K1 cells by small molecules, qHTS cell viability counter screen (AID 1346979); also: nearly all actives have a fitted effect of over 35% in size
How it was run: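 Cytotoxicity counter screen run in parallel with the caspase-3/7 assay: CHO-K1 cells, 16hr compound treatment at 37C, then CellTiter-Fluor for 1hr before fluorescence reading.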

[20] = target: Cytochrome P450 2C19 (Homo sapiens) (UniProt P33261); assay: Cytochrome P450 Family 2 Subfamily C Member 19 (CYP2C19) small molecule antagonists: luciferase reporter qHTS assay (AID 1671197); also: nearly all actives have a fitted effect of over 65% in size
How it was run: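 Relative luminescence units recorded 20 min after the detection reagent stopped a 1 h, 37C CYP2C19 reaction on proluciferin substrate, which was started by NADPH regeneration following 10 min room-temperature compound preincubation; ketoconazole positive control.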
Potency is read from the fitted curve at half-maximal effect; tags tell the direction and shape of the fitted curve or compound fluorescence and quenching.

Sequence of UniProt P16473 (P16473 whole entry, looked up): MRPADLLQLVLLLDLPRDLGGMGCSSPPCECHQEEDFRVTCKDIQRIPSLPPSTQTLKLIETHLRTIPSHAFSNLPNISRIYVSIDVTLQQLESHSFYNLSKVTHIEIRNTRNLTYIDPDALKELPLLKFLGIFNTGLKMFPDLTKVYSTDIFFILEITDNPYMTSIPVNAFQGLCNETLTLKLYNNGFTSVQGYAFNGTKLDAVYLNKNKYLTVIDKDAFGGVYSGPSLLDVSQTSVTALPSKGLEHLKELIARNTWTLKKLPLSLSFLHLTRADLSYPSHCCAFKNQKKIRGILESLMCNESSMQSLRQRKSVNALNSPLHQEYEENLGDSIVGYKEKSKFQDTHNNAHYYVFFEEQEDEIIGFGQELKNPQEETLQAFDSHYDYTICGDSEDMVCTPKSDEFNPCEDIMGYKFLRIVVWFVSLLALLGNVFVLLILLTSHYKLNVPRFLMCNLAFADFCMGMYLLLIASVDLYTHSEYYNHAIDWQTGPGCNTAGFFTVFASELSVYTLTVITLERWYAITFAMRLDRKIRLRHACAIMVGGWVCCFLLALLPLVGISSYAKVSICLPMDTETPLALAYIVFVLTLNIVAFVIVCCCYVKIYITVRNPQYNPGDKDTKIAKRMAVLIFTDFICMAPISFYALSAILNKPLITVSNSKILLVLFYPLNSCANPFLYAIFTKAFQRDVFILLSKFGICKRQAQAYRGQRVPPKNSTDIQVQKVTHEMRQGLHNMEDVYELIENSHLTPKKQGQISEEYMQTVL
Sequence of UniProt Q03181 (Q03181 whole entry, looked up): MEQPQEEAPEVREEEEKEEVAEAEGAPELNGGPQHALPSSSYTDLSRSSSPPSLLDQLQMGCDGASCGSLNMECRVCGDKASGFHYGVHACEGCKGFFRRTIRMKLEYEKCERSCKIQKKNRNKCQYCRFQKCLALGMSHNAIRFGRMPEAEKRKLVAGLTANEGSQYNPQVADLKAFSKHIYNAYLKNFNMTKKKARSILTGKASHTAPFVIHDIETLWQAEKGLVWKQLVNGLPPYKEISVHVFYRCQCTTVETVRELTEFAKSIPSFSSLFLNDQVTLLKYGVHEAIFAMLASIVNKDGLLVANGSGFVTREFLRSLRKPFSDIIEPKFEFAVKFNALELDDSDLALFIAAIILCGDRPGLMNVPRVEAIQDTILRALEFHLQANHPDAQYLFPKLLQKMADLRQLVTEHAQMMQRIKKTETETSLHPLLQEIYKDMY
Sequence of UniProt P03372 (P03372 whole entry, looked up): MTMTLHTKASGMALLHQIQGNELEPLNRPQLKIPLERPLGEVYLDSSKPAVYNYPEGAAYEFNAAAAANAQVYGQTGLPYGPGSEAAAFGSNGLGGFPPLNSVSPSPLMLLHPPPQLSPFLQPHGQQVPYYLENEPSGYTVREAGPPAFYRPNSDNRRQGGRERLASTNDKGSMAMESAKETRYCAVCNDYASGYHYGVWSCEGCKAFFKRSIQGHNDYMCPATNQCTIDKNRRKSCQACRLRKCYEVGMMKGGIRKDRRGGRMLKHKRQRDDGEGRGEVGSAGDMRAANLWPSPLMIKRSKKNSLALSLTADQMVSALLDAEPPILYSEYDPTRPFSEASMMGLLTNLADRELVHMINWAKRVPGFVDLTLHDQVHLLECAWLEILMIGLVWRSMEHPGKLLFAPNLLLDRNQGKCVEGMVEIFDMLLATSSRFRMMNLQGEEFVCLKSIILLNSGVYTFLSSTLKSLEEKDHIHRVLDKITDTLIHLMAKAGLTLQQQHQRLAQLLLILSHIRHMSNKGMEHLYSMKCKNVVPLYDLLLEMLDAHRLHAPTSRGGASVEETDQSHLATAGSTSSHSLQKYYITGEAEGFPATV
Sequence of UniProt Q92731 (Q92731 whole entry, looked up, the tested form may be a part): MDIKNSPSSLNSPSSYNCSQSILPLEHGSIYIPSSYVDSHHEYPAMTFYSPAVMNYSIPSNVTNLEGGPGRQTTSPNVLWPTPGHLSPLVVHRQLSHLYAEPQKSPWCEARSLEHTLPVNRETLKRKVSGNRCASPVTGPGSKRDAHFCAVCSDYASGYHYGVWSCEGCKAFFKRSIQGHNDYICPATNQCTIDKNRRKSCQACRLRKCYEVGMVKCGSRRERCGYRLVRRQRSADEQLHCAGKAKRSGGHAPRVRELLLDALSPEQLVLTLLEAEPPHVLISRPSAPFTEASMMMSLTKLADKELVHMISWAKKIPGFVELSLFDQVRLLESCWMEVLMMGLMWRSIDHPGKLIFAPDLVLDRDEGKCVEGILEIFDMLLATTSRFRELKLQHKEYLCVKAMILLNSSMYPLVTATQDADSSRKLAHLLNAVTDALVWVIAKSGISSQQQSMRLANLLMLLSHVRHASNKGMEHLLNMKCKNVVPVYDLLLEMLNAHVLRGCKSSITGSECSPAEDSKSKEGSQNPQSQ
Sequence of UniProt O75469 (O75469 whole entry, looked up): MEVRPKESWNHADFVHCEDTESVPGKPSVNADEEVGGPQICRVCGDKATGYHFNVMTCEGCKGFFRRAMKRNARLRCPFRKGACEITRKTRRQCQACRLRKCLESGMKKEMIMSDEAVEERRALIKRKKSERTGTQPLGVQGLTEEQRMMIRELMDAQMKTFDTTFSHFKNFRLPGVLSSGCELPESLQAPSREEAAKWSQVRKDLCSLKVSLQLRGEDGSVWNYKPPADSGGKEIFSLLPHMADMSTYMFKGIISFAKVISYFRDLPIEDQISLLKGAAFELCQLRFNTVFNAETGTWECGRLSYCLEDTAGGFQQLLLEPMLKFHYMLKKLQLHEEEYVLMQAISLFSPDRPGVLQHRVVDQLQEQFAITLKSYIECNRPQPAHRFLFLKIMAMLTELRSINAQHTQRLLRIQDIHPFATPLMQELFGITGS
Sequence of UniProt P33261 (P33261 whole entry, looked up): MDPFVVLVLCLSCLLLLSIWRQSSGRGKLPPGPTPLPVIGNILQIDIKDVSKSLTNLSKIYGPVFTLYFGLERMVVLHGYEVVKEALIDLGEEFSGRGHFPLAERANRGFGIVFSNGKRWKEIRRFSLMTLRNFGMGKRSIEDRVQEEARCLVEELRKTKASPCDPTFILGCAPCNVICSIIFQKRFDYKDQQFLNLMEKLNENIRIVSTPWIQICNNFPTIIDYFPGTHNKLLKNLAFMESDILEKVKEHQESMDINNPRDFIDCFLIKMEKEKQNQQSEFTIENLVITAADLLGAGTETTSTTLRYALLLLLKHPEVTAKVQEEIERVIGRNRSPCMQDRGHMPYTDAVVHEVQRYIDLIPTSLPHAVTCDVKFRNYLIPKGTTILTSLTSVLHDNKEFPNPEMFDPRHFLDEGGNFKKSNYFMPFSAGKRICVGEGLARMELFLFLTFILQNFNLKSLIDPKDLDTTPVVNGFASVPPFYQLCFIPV

## C[C@]12CC[C@H](O)C[C@H]1CC[C@@H]1[C@@H]2C[C@@H](O)[C@]2(C)[C@@H](C3=CC(=O)OC3)CC[C@]12O
[1]
  Potency: inconclusive: 1.1 µM [cytotoxic, full curve]
[2]
  Potency: active: 0.77 µM
[3]
  Potency: inconclusive: 0.692 µM [cytotoxic, full curve]
[4]
  Potency: inconclusive: 6.11 µM [rising, full curve]

## NC(=O)c1ccc(N)nc1
[2]
  Potency: inconclusive: 21.7 µM [cytotoxic, full curve]
[5]
  Potency: inconclusive: 54.9 µM [cytotoxic, single point]
[6]
  Potency: inconclusive: 61.6 µM [cytotoxic, partial curve, poor fit]
[4]
  Potency: inconclusive: 61.1 µM [fluorescent, partial curve]

## CCOP(=S)(OCC)SCCS(=O)(=O)CC
[2]
  Potency: inconclusive: 54.5 µM [cytotoxic, partial curve, poor fit]
[7]
  activation: inconclusive: -16.8%

## C[N+]1(CCF)[C@@H]2CC[C@H]1CC(OC(=O)C(O)(c1ccccc1)c1ccccc1)C2 (stereo not given in full)
[8]
  Potency: inconclusive: 26.8 µM [rising, single point]
[9]
  Potency: active: 15 µM

## CC[N+]1(CC)CCC(OC(=O)C(O)(c2ccccc2)c2ccccc2)C1 (stereo not given)
[10]
  Potency: inactive
[11]
  Potency: inactive

## O=C(O)[C@H](O)[C@@H](O)C(=O)O
[9]
  Potency: inactive
[12]
  Potency: inactive
[10]
  Potency: inactive

## CC1(C(=O)Nc2ccc(O)c(Cl)c2Cl)CCCCC1
[13]
  Potency: inconclusive: 49 µM [cytotoxic, partial curve, poor fit]
[10]
  Potency: inconclusive: 0.0776 µM [cytotoxic, full curve, poor fit]
[2]
  Potency: inconclusive: 77 µM [cytotoxic, partial curve, poor fit]
[14]
  Potency: inconclusive: 127 µM [cytotoxic, single point]
[5]
  Potency: inconclusive: 54.9 µM [cytotoxic, single point]
[3]
  Potency: inconclusive: 49 µM [cytotoxic, single point]
[6]
  Potency: inconclusive: 54.9 µM [cytotoxic, single point]
[4]
  Potency: inconclusive: 24.3 µM [fluorescent, full curve]

## Cc1ccn2nc(S(=O)(=O)Nc3c(F)cccc3F)nc2n1
[15]
  Potency: inactive

## C[C@H]1[C@@H]2Cc3ccc(O)cc3[C@@]1(C)CCN2C
[16]
  Potency: inconclusive: 73.3 µM [rising, partial curve, poor fit]
[15]
  Potency: inconclusive: 184 µM [cytotoxic, single point]
[8]
  Potency: inconclusive: 148 µM [rising, single point]
[17]
  Potency: inactive
[18]
  Potency: inactive
[3]
  Potency: inactive
[6]
  Potency: inactive

## c1cc[c]([Sb]([c]2ccccc2)[c]2ccccc2)cc1
[1]
  Potency: inconclusive: 61.6 µM [cytotoxic, single point]
[14]
  Potency: inconclusive: 127 µM [cytotoxic, single point]
[5]
  Potency: active: 54.9 µM
[3]
  Potency: inconclusive: 49 µM [cytotoxic, partial curve]
[6]
  Potency: inconclusive: 49 µM [cytotoxic, partial curve]

## ClCc1cccc(Cl)c1
[1]
  Potency: inactive
[18]
  Potency: inactive

## OC(Cc1ccccc1Cl)(Cn1cncn1)C1(Cl)CC1 (stereo not given)
[2]
  Potency: inconclusive: 27.3 µM [cytotoxic, full curve, poor fit]
[14]
  Potency: inconclusive: 113 µM [cytotoxic]
[3]
  Potency: inconclusive: 54.9 µM [cytotoxic, partial curve]
[19]
  Potency: inconclusive: 68.6 µM [cytotoxic, single point]

## CC[n+]1c(-c2ccccc2)c2cc(N)ccc2c2ccc(N)cc21
[8]
  Potency: inconclusive: 26.8 µM [cytotoxic, partial curve, poor fit]
[9]
  Potency: inconclusive: 29.8 µM [inhibitor, partial curve] and inconclusive: 27.2 µM [inhibitor, partial curve]
[12]
  Potency: inactive
[17]
  Potency: active: 24.4 µM and active: 23.7 µM
[13]
  Potency: active: 21.8 µM and inconclusive: 15 µM [cytotoxic, partial curve, poor fit]
[10]
  Potency: inconclusive: 2.18 µM [cytotoxic, full curve]
[18]
  Potency: inconclusive: 9.64 µM [inhibitor, full curve] and inconclusive: 26.6 µM [inhibitor, partial curve]
[2]
  Potency: active: 24.2 µM and active: 6.68 µM
[7]
  Potency: inconclusive: 27.2 µM [falling, partial curve] and inconclusive: 26.6 µM [falling, partial curve]
[14]
  Potency: inconclusive: 56.4 µM [cytotoxic, partial curve]
[6]
  Potency: active: 6.89 µM and active: 9.52 µM

## CCOP(=S)(OCC)SCS(=O)(=O)CC
[5]
  Potency: inconclusive: 54.9 µM [rising, single point]
[3]
  Potency: inconclusive: 61.6 µM [rising, single point]
[6]
  Potency: inconclusive: 61.6 µM [rising, partial curve, poor fit]

## Cc1ccc2nc3sc(=O)sc3nc2c1
[20]
  Potency: active: 16.9 µM

## CNC(=O)Oc1ccccc1OC(C)C
[15]
  Potency: inconclusive: 68.5 µM [cytotoxic, single point]
[8]
  Potency: inconclusive: 21.9 µM [rising, single point]
[12]
  Potency: inconclusive: 0.489 µM [cytotoxic, single point]
[3]
  Potency: inactive
[11]
  Potency: inconclusive: 48.6 µM [activator, partial curve, poor fit]
[20]
  Potency: inconclusive: 89.4 µM [inhibitor, single point]
